Data published in the supplement of paper PMC10126150.
Values marked as one replicate rest on one cluster of the flow cell; about a third of the high ones do not repeat.

Test system: ATP
Experiment: switch fluorescence ratio, 500 uM ATP over buffer (Cy3 cluster intensity, sum of 5 cycles each) (fold (ratio)); higher = stronger signal-on switching upon ATP binding; sequences stand for … in TCGTCGGCAGCGTCAGATGTGTATAAGAGACAGTTTTTTTTTTTTTTTTTTTTTTTTT…TC
Conditions: aptamer strand: ATP DNA aptamer (quencher-CACCTGGGGGAGTATTGCGGAGGAAGG + anchor), 100 nM annealed; ATP concentration: 500 uM; one replicate
Method in brief: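 Cy3-labelled switching-strand clusters on a modified Illumina MiSeq flow-cell were annealed to 100 nM quencher-labelled ATP aptamer, imaged in selection buffer, then imaged after 15 min with 500 uM ATP at 22 °C. Five buffer/ATP cycles ran, with NaOH stripping and re-annealing between them. The fluorescence ratio is summed target-cycle over summed buffer-cycle Cy3 intensity per cluster, averaged per switch-domain sequence. Clusters outside 100-1000 RFU were excluded.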
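Further: ATP exposure 15 min at 22 °C before imaging.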

Sequence	switch fluorescence ratio
CTACAAGCTT	1.03
CTCTGGACCT	1.35
GCGTCTCTGT	0.995
GCGCGAGTTC	1.05
GCTTATCGAC	1.06
CATGACAGAC	1.14
TACTCTAATT	1.02
TTCCAATTAC	1.52
ACTGCCTCGT	1.12
GAACGTGCCC	1.04
TTGTGACAG	0.98
CCGTGCACTG	1.15
ATCGTTAATA	1.02
GCGGTTTCGC	1.02
GACGGGTCGT	0.978
TTGAACAAGT	1.04
TAAAAAAAAA	1.02
TCAGATAACA	1.02
TACACCCCGT	1.09
CAGTGGACCA	0.996
GGTGTTCCGT	0.946
GGAGAGACCG	1.03
CCTATCCGTT	1.09
AGCAGCCAGT	1.03
TCAGTGTGTG	0.975
TCGTTGTATA	0.951

Sequence	switch fluorescence ratio
AGCGTGGCTG	1.03
GTAGGCAAGC	1.35
AGGGGGTCTC	1
GATAAACCGT	1.08
TTAGGACTCA	1.02
CGCAATGTAG	1.79
TACGGGGGT	0.992
TGCATTGTGG	0.99
TGTCCACCGC	2.41
GATGGCGCAA	1.29
CCCCGGATTC	2.02
TAATGCGTTA	0.988
AAGTTCACC	0.964
CCTTGAAAAA	0.96
TAGGGGGGG	1.04
GGTCGGGTCC	1.02
ATCCATCATT	0.979
TTTCGTTAAT	1.25
GGGTCTTAGA	0.987
ATCTTTAGGT	0.982
ACTGGAGTAT	0.987
AAAATCCTCC	1.68
CGATATAAT	1.01
AACATGAATC	0.964
TCATGGTCAG	0.961
ACTGTATGAC	1.11

Sequence	switch fluorescence ratio
TACGAAGCGC	1.89
GCGGGTTCAT	0.987
CACTATAAT	1.08
TGCTTTGGCT	1
TTTGTGTGCA	1.04
TGGACTGGGA	0.971
CTGGTTCCGA	0.993
GGGAGATGCG	0.966
CCGGAGGAAT	2.62
GTTAATATTT	1.01
GTGGTCTATG	0.998
GTTGCCCTAT	0.984
ATTTCCGTCG	1.04
TGCCACGATT	1.02
TGTATGAAA	1.04
TCTAGGGTTA	0.943
ATCCATGGTG	1.76
ATTTCGATTG	0.993
CCACTGGGAA	1.12
CACTATGCCT	1.03
TCTTACGGGC	1.02
AATAGTGCAT	0.998
CAGTACGATT	1.04
ATATCGCCTT	1
GGGCTAGAAC	1.02
AGCAAATATG	1.04

Sequence	switch fluorescence ratio
GCTGTCGCCC	1.08
TGAATACTCA	1.17
GCCTCCGTCG	1.99
ACTAATTTGG	1.02
AGTGTTCTGG	0.983
ACCACCAAGA	1.09
CTCTAAAGA	1.07
CGCTTTTCAG	0.998
TCCCTACACC	1.09
ATCATGCCGA	1.02
GGCCTCTTTG	1.11
CTACAAACAC	1.19
ATCTAGGGCG	0.991
CGACGGTTGA	1.07
TCGAGGTCGT	0.989
TTTCATCATA	0.996
TAGCCAGAGG	1.08
CCCAATATGG	1.13
AATCTAATGC	1.01
GCTAGTGACG	1.05
CGGTACTAAC	1.14
TATGAAGAAT	1.02
ATAATTATGA	1.01
TCCAACTGCC	1.18
GCGCAATGTG	1.29
ATGTGGCGCG	1.04

Sequence	switch fluorescence ratio
GGGGTCTGGC	0.992
TGGTACTTCA	1.04
GAGGCTCTTC	0.98
AAGCCTATTA	0.954
ACCTTTGACA	1.11
CGCCTTGCGA	1
ATAAACGCAC	1.8
TTTTATTCTC	1
GATTCACTGA	1.02
TGGCATTTGC	1.04
ACAATTAACA	1.02
GACAGGCTCA	1.02
GGCCAAGAGC	0.962
CATTCGTGCG	1.01
AAGATTCGGC	0.987
TCTGCGTCGT	1
CGAATAATGC	1.32
ATTCACCAGT	1.06
CACATTCCTA	1.01
AAGGTTACC	1.05
TGTGTATG	1.03
TTTAGTTGCA	0.999
AGAAGCAACA	1.16
TCCAGAGTCC	1.07
GGGCTTGCTG	0.993
GGTCTCACGT	0.996

Sequence	switch fluorescence ratio
GCTACTAGTG	1.04
ACAGGTGCCA	1.67
GCAGGTCCCT	1.03
GAGCACGCAA	4.95
CAATAGAGT	0.959
AGATAGATAC	1.13
CATTCCGTTT	1.07
AGGGCTCGAG	1
CATCGATC	0.991
TGAACGGTCT	1.06
TCAGGCAAGT	0.993
TCGGAAAGTG	1.01
CCGCACCGGG	2.1
AAGGTTGCT	1.03
TCAAGCGATA	1.47
CCCTGAGCGC	1.03
ATCGATTCGA	0.996
AGGATTTGG	1.01
GAGAGTGAGA	0.985
ATGAGGACTA	1.02
TTCATTCAG	0.966
GATCAAACCC	0.984
GTTATTAATG	1.01
TTTCGGTGCG	0.999
ACCGTCTAAT	1.01
CATCATAACT	1

Sequence	switch fluorescence ratio
CCTATCGGCT	1.06
GAGAGAATG	1
TGCTACCATC	1.07
AATACCCGTG	1.04
ACGGGAGACA	1.1
GAGGGTTTA	0.99
GTCAATCAGC	0.993
TCCACGTAGG	1.09
GCGTACCTTA	1.06
ATGACTGTAA	1.05
ACACCGATT	1.04
GCTTACTGAT	1.02
CACTTACTAT	1.11
AACGACGGGT	1.02
CCCACCCGTG	1.24
CAAAGCCGTT	1.09
CACCGACGCC	2.33
TCGCTGAGAG	1.08
TCCAGGGTCT	1.08
GAGCTCACGT	1
GATATAATAA	0.941
AGCTCAGTCA	0.991
TTGGCTACTT	1.08
AACCTAACCC	1.21
ACCGAGTATT	1.03
CTGAGACATT	0.999

Sequence	switch fluorescence ratio
AGGATGACTT	0.977
GTTGGCACTC	1.01
TAGATATGAT	0.958
CTGGTGCCG	1.01
AGCGGATGGG	0.985
CGGTAGATTA	1.02
TTTTCTGGGC	1.05
TCTAATCTTC	0.981
GCGCGTAGTA	0.998
ACGGAAACT	1.12
GTGCGAAGG	0.983
CAATTGGATT	1.03
AGTTGTAGAG	1.03
CTCTCCGGGG	1.32
CGTGCCGGGC	1.01
ACGTGCTGCT	0.945
TCTGCCGACA	1.03
ATCCAGGAAC	1.02
CTTAATGGAG	1.01
